Some of the results follow.
B1: chr14:45599971:45599972:-_ENSG00000100442_ENST00000396062|hu_hu|FALSE|FALSE (ssRNA)
RNA: GGGAGUUCUACAGUCCGACGAUCAUAGGCUGUAACCAAGUGGUCCUUGUUAGCUGUCUUGGCCACAUUUUUAAUGUUUCCUAAUAAUUUAUGUUCUGCAAGAAACGAAUCUGAACCGUGUUCCUGCAGAAACUUGAUAAUGUCCAACAGAGGAUUGAGCAUCA
B2: 111947740_111948246_1497_CDS_ENSG00000204842_ENST00000535949|human|control|control (ssRNA)
RNA: GGGAGUUCUACAGUCCGACGAUCAAUAUUUUCUUUAUUCCCUGCAGGAGAGUUCUGCCUCUGAUCUUGAAGCCUGGAAUCUUUAGCCUCACUAGAAGGGGUAACAGCUCUGUUCGAUGCAGGACUAGCAGGCGUAGGAGAUGCCAACAGAGGAUUGAGCAUCA
B3: chr15:98780418:98780419:-_ENSMUSG00000072235_ENSMUST00000097014|mus_mus|FALSE|FALSE (ssRNA)
RNA: GGGAGUUCUACAGUCCGACGAUCAAAGCACACAUUGCCACAUACAAAUUAACUGAUCAGACCACAACUUUCUGUGUUGGAACACAAUAAACAUCCCUGUGGAAGCAGCACCUUGUGACAUUUAAUUUAGUAUUCCUCUCCUUCCAACAGAGGAUUGAGCAUCA
B4: 6283536_6283656_2427_3pUTR_ENSG00000116237_ENST00000343813|human|control|control (ssRNA)
RNA: GGGAGUUCUACAGUCCGACGAUCAUUAAGCCAUGAAAUCUAGAAAUAAGUCAUAUUUCUGAGUUGAUAAAAUGCUUUUCUGAACAUACAUUUUAGGUAUCUGGCACAAUUAACCAAAUGUCUGCCCAUUUUUGUGUAGCUUUCCAACAGAGGAUUGAGCAUCA
B5: chr14:76904430:76904431:+_ENSMUSG00000022010_ENSMUST00000022587|mus_mus|mus_mus_mus_hu_True|1_58 (ssRNA)
RNA: GGGAGUUCUACAGUCCGACGAUCUGCAGCCAAAAACACCCUCGUGGAAAAAAAGAGGGAACACCAGCAGCCUUGUACAAACUAGAUAAAAUCUUCUGGCUUUCCGCAGCCCAGGGAGAAACAGAAAACGGCAGCCCUCGAGUGCAACAGAGGAUUGAGCAUCA
B6: chr3:69361433:69361434:+_ENSMUSG00000027784_ENSMUST00000029355|mus_mus|FALSE|FALSE (ssRNA)
RNA: GGGAGUUCUACAGUCCGACGAUCCACCCAUAGAUCUAUCUGGGCUACUUGUUACAGCUGCCCAUCUCUUCCCCCUCCCCUAAAAAAAAGCCACAGACAAACAAACUGACAAGGCAGAGGAUAACGUCUAGGGAAAUAUGGCCACAACAGAGGAUUGAGCAUCA
B7: chr12:110929859:110929860:-_ENSG00000111237_ENST00000549970|hu_hu|FALSE|FALSE (ssRNA)
RNA: GGGAGUUCUACAGUCCGACGAUCCUGGCUUUAAGGUUUUUUGUAUUCGAUUCGUUCUACUUUCACAUCAUCUCCAAUUAGCUGAUACACAUAGGUGACCACUGUAGAAGCCUGGAUAUCCAUCAACACAAAUGAUGGAAUAAUCAACAGAGGAUUGAGCAUCA
B8: chr2:65315729:65315730:-_ENSG00000138069_ENST00000409751|hu_mus|FALSE|FALSE (ssRNA)
RNA: GGGAGUUCUACAGUCCGACGAUCAACAUUGGACUUCUCGGCACCACCAGCUGUAGCUCCAGGACCCAUUCGCUUUUUAAUCUCAGCUGCCAUCGUCAUGAAAGACUGUUCUACAUUCGUUGCGUUCUUAGCACUGGUUUCCAACAACAGAGGAUUGAGCAUCA
B9: chr14:57521792:57521793:+_ENSMUSG00000021945_ENSMUST00000022511|mus_hu|FALSE|FALSE (ssRNA)
RNA: GGGAGUUCUACAGUCCGACGAUCGGAAGGAGUAAUUUUGGAAUCAUUUCCUUGUAGUUCUUCAUUUUUUGAUGAUGUAAAUGUUAUGGUUCUUUGAUCAGCUACCACUGGUACAGAAGGUGGGGGAGGUUGUACAGGUUCGAUCAACAGAGGAUUGAGCAUCA
B10: 84692430_84692550_306_3pUTR_ENSMUSG00000036766_ENSMUST00000049126|mouse|control|control (ssRNA)
RNA: GGGAGUUCUACAGUCCGACGAUCGCAGCUGCGGGAGCCCGUGGUUCCCCGGGCAACCGCGGGCGGGGCCGGGGGCGGGGCCCACGGAGGCUGGGCUCCCGGCUGGAGGACCCGGGAUGGGAACCCUUCUGCUCCGCGUCUCAGCAACAGAGGAUUGAGCAUCA
B11: chr8:8618132:8618133:-_ENSMUSG00000001300_ENSMUST00000001319|mus_mus|FALSE|FALSE (ssRNA)
RNA: GGGAGUUCUACAGUCCGACGAUCCUCCAAAUAAGGGGACAGUUGGUAGAUUGUCAUUUUCUGCACCAGACACAAAACAGACGCACAGGACACUUCUCAAUGGGUUGCAGGUAACUCAACUCUUCAUCAAUUCAUCCGAUUCUUCAACAGAGGAUUGAGCAUCA
B12: 155541402_155541522_531_ncRNA_ENSMUSG00000041936_ENSMUST00000154494|mouse|control|control (ssRNA)
RNA: GGGAGUUCUACAGUCCGACGAUCACUCGAAGCCAGCGGUUGGUGUUGACCUUCACAGUGGAGCGCAGCACAACUGGCUGGGAGCCUAGGUCAUAGCUCAGUUGUAGGUGCCCAUCCACAAUGGCCAGAGCCAUGUAGUCUGCACAACAGAGGAUUGAGCAUCA
B13: chr2:202488911:202488912:-_ENSG00000155755_ENST00000286196|hu_mus|hu_hu_hu_mus_False|48_98 (ssRNA)
RNA: GGGAGUUCUACAGUCCGACGAUCAUUGAAACAUUUUCAUAAUAUUGCAGUAGCAUUUCAGCAUUAUGUAACAAAAGCUCAAUUGUAAAUACACAUGUCUUAUAAAAAUACACUUAAAAACACGAGUGGGGAGCGCAGGCGCCACAACAGAGGAUUGAGCAUCA
B14: chr14:34224135:34224136:-_ENSMUSG00000021936_ENSMUST00000111945|mus_mus|FALSE|FALSE (ssRNA)
RNA: GGGAGUUCUACAGUCCGACGAUCCUUUAAAUUCUGGUAUCGUUUUAGGACUGUGAAUGUAGAAUCUCCAAUCUCUACACUAUAAAAAUUGUUGUCACGUUUGCUUCUGCUCAUGAUGGCAAGCAAUUAGUCUAAUGGCUUCAUCAACAGAGGAUUGAGCAUCA

What follows are binders tested against T1, UNK ZnF1-3 (human, UniProt Q9C0B0 31-174) (assay: nsRBNS (natural sequence RNA bind-n-seq); RBNS binding buffer (assumed for nsRBNS): 25 mM Tris pH 7.5, 150 mM KCl, 3 mM MgCl2, 0.01% Triton X-100, 500 ug/ml BSA, 20 U/ml SUPERase-In, 4 C; UNK is unkempt and MSI1 is Musashi-1; names of the RNAs are library labels; protein concentration not given here; high values mean tight binding).
T1 sequence: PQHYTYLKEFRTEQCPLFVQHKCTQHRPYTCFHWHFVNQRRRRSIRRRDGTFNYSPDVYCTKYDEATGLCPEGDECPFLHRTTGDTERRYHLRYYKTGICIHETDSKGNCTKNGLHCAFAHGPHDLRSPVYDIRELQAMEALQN

| Binder | binding signal [enrichment R] |
| --- | --- |
| B1 | 0.672 |
| B2 | 0.936 |
| B3 | 1.87 |
| B4 | 0.666 |
| B5 | 1.87 |
| B6 | 2.14 |
| B7 | 1.12 |
| B8 | 1 |
| B9 | 1.46 |
| B10 | 1.07 |
| B11 | 1.06 |
| B12 | 0.675 |
| B13 | 0.923 |
| B14 | 0.665 |

— paper PMC12136788
